Assay results published in PubChem BioAssay (Tox21).
Where “and” joins values, the source holds several entries; their conditions need not be identical. Identical values can stand only once. Inconclusive results, whose numbers are uncertain, are shown with a selection of clear calls. For some assays here: Where the call is inconclusive, the potency comes from a doubtful curve fit. Calls of active or inactive are those of the source. Unless noted, calls follow the shape of the full dose curve.

Key:
[1] = molecular target: Peroxisome proliferator-activated receptor gamma (Homo sapiens) (UniProt P37231); assay: qHTS assay to identify small molecule antagonists of the peroxisome proliferator-activated receptor gamma (PPARg) signaling pathway (AID 743191); conditions: HEK293H PPARg-UAS-bla, beta-lactamase ratio, antagonist, 17 h; ratio activity, negative = inhibition: at 62.6 µM (top of the series) unless noted; also: nearly all actives have a fitted effect of over 30% in size; also: potency is read from the fitted curve at half-maximal effect; as to ratio activity, negative = inhibition: % is scaled to controls: 0 for no effect and ±100 for the full control effect
Sequence of UniProt P37231 (P37231 whole entry, looked up): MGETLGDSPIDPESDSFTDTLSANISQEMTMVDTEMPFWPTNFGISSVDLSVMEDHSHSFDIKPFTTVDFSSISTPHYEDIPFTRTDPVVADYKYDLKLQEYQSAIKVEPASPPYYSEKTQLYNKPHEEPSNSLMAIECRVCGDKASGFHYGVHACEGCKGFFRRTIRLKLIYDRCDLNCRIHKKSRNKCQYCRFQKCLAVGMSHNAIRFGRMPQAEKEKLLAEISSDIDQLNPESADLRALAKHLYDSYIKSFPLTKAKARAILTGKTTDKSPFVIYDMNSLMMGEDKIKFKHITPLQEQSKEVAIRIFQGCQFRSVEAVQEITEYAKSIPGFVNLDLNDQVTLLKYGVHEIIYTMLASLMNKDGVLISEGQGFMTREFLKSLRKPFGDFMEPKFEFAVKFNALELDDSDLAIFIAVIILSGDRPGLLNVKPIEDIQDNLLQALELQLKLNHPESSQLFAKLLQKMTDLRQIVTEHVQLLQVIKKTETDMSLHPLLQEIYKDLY
Procedure, shortened: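 GeneBLAzer PPARg UAS-bla HEK293H cells carrying a UAS-driven beta-lactamase reporter were plated at 3000 cells/well, preincubated 5 h at 37C, then given compound for 17 h at 37C; LiveBLAzer B/G FRET substrate was read after 1 h at room temperature.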

[2] = qHTS assay to identify small molecule antagonists of the peroxisome proliferator-activated receptor gamma (PPARg) signaling pathway - cell viability counter screen (AID 743194; active = well fitted curve in the direction sought with a large enough effect in the repeat runs; inconclusive = weak or mixed curves; inactive = no such curve, though single readings can be large; an effect the other way counts as inactive or inconclusive; also: potency is read from the fitted curve at half-maximal effect; nearly all actives have a fitted effect of over 55% in size); conditions: PPARg-bla HEK293H viability, CellTiter-Glo luminescence, 17 h, co-treated with 50 nM rosiglitazone; activity change, negative = cytotoxicity: at 62.6 µM (top of the series) unless noted
Procedure, shortened: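 PPARg-UAS-bla HEK293H cells were plated, rested 5 h at 37 C, then treated with compounds plus rosiglitazone (50 nM final) for 17 h at 37 C; viability was then read by CellTiter-Glo luminescence after 30 min at room temperature.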

[3] = qHTS assay for small molecule agonists of the antioxidant response element (ARE) signaling pathway (AID 743202; active = well fitted activation curve with a large enough effect in the signal ratio in the repeat runs, not every such curve was filed as active; inconclusive = weak or mixed curves, or effect the other way; inactive = no such curve, though single readings can be large or run the other way; the % refers to the signal ratio; also: potency is read from the fitted curve at half-maximal effect; as to activation: % is scaled to controls: 0 for no effect and ±100 for the full control effect); conditions: HepG2 ARE-bla reporter, beta-lactamase FRET, 16 h; activation: at 73.3 µM (top of the series) unless noted
Procedure, shortened: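 Read-out: LiveBLAzer B/G FRET substrate fluorescence after 2 h at room temperature, following 16 h compound treatment at 37 C of HepG2 cells carrying an ARE-driven beta-lactamase reporter.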

[4] = qHTS assay for small molecule activators of the heat shock response signaling pathway (AID 743210; active = well fitted activation curve with a large enough effect in the signal ratio in the repeat runs, with a control signal flat, not every such curve was filed as active; inconclusive = weak or mixed curves; the % refers to the signal ratio; also: potency is read from the fitted curve at half-maximal effect); conditions: HeLa HSE-bla reporter, beta-lactamase ratio, 5 h; activation: at 62.6 µM (top of the series)
Procedure, shortened: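 HSE-bla HeLa cells (beta-lactamase reporter under heat shock response elements) were exposed to compounds for 5 h at 37 C, then loaded with LiveBLAzer B/G FRET substrate for 2.5 h at room temperature before fluorescence reading.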

[5] = molecular target: Peroxisome proliferator-activated receptor delta (Homo sapiens) (UniProt Q03181); assay: qHTS assay to identify small molecule agonists of the peroxisome proliferator-activated receptor delta (PPARd) signaling pathway (AID 743212); conditions: HEK293H PPARd-UAS-bla, beta-lactamase FRET ratio, 17 h; activation: at 62.6 µM (top of the series) unless noted; also: potency is read from the fitted curve at half-maximal effect
Sequence of UniProt Q03181 (Q03181 whole entry, looked up): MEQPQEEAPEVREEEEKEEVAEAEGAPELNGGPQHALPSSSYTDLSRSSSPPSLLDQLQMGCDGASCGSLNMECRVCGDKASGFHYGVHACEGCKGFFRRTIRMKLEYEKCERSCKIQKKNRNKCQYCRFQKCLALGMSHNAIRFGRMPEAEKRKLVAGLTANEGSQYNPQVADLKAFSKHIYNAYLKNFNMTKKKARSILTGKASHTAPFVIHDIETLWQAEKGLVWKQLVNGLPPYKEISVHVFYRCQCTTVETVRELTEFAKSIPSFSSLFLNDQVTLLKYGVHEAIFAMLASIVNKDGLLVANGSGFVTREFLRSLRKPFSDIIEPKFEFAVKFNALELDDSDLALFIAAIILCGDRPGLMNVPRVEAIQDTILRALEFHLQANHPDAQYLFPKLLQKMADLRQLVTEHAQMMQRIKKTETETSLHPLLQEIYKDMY
Procedure, shortened: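 GeneBLAzer PPARd UAS-bla HEK293H cells (beta-lactamase reporter under UAS control), plated and rested 5 h at 37 C, then exposed to compounds in DMSO at 37 C; LiveBLAzer B/G FRET substrate added, 2 h room temperature, fluorescence read.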

[6] = qHTS assay to identify small molecule agonists of the vitamin D receptor (VDR) signaling pathway - cell viability counter screen (AID 743224; active = well fitted curve in the direction sought with a large enough effect in the repeat runs; inconclusive = weak or mixed curves; inactive = no such curve, though single readings can be large; an effect the other way counts as inactive or inconclusive; also: potency is read from the fitted curve at half-maximal effect; nearly all actives have a fitted effect of over 50% in size); conditions: VDR-bla HEK293T viability, CellTiter-Glo luminescence, 16 h; activity change, negative = cytotoxicity: at 62.6 µM (top of the series) unless noted
Procedure, shortened: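 VDR-bla cell line, quantitative HTS format; 16 h compound incubation (37C, 5% CO2); ATP-based CellTiter-Glo luminescence measured in the reporter assay wells.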

[7] = molecular target: Peroxisome proliferator-activated receptor delta (Homo sapiens) (UniProt Q03181); assay: qHTS assay to identify small molecule antagonists of the peroxisome proliferator-activated receptor delta (PPARd) signaling pathway (AID 743215; active = well fitted inhibition curve with a large enough effect in the signal ratio in the repeat runs, not every such curve was filed as active; inconclusive = weak or mixed curves, or effect the other way; inactive = no such curve, though single readings can be large or run the other way; the % refers to the signal ratio;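 also: cells stimulated with agonist L165041 at 300 nM final during compound exposure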; also: potency is read from the fitted curve at half-maximal effect); conditions: HEK293H PPARd-UAS-bla, beta-lactamase FRET ratio, antagonist, 17 h; ratio activity, negative = inhibition: at 62 µM (top of the series) unless noted
Procedure, shortened: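 Antagonist-mode beta-lactamase reporter screen: HEK293H cells with UAS-bla under PPARd control, stimulated by 300 nM L165041 (final) alongside test compound for 17 h at 37 C, then FRET fluorescence after 2 h substrate incubation.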

[8] = molecular target: Bile acid receptor (Homo sapiens) (UniProt Q96RI1); assay: qHTS assay to identify small molecule antagonists of the farnesoid-X-receptor (FXR) signaling pathway (AID 743217; active = well fitted inhibition curve with a large enough effect in the signal ratio in the repeat runs, not every such curve was filed as active; inconclusive = weak or mixed curves, or effect the other way; inactive = no such curve, though single readings can be large or run the other way; the % refers to the signal ratio; also: % is scaled to controls: 0 for no effect and ±100 for the full control effect); conditions: HEK293T FXR-UAS-bla, beta-lactamase ratio, CDCA-stimulated, 16 h; activity change, negative = inhibition: at 62.6 µM (top of the series) unless noted
Sequence of UniProt Q96RI1 (Q96RI1 whole entry, looked up): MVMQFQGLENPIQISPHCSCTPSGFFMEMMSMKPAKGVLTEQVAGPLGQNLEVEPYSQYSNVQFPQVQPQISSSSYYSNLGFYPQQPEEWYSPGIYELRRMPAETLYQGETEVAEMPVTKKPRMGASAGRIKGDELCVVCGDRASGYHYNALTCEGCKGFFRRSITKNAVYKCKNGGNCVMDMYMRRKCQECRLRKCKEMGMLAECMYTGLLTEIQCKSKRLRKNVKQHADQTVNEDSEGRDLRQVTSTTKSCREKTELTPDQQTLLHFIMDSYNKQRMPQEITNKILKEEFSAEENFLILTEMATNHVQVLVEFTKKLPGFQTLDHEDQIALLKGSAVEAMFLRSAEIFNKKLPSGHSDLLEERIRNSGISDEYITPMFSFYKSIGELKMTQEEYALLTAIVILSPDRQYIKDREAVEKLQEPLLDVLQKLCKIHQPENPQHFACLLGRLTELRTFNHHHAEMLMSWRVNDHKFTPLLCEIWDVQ
Procedure, shortened: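 Beta-lactamase reporter under UAS control in HEK 293T cells; compound exposure 16 h at 37 °C in the presence of chenodeoxycholic acid (50 uM final); signal from B/G FRET substrate after 2 h at room temperature.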

[9] = qHTS assay to identify small molecule agonists of the farnesoid-X-receptor (FXR) signaling pathway - cell viability counter screen (AID 743218; active = well fitted curve in the direction sought with a large enough effect in the repeat runs; inconclusive = weak or mixed curves; inactive = no such curve, though single readings can be large; an effect the other way counts as inactive or inconclusive; also: potency is read from the fitted curve at half-maximal effect; nearly all actives have a fitted effect of over 45% in size); conditions: FXR-bla HEK293T viability, CellTiter-Glo luminescence, 16 h; viability change, negative = cytotoxic: at 62.6 µM (top of the series) unless noted
Procedure, shortened: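 In GeneBLAzer FXR-UAS-bla HEK 293T cells, compounds act for 16 h at 37 C. Cell viability is then scored in the reporter wells by CellTiter-Glo, 30 min at RT, luminescence.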

[10] = molecular target: Vitamin D3 receptor (Homo sapiens) (UniProt P11473); assay: qHTS assay to identify small molecule agonists of the vitamin D receptor (VDR) signaling pathway (AID 743222); conditions: HEK293T VDR-UAS-bla, beta-lactamase FRET ratio, 16 h; activation: at 63.5 µM (top of the series) unless noted; also: potency is read from the fitted curve at half-maximal effect
Sequence of UniProt P11473 (P11473 whole entry, looked up): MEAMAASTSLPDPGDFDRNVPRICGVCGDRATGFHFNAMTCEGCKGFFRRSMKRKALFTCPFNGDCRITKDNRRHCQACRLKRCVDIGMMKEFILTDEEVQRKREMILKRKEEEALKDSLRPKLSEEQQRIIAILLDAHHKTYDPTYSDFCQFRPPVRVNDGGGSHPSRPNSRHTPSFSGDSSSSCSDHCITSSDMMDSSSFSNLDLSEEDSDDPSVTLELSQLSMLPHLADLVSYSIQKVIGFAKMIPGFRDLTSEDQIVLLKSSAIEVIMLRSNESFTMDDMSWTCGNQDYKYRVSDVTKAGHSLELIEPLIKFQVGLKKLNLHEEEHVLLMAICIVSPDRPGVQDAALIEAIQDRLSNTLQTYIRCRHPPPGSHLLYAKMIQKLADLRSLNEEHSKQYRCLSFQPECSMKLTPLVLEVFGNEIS
Procedure, shortened: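 Agonist activity measured in VDR-bla reporter cells. Exposure 16 h, 37C, 5% CO2; detection by B/G FRET substrate, 2 h RT.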

[11] = molecular target: Vitamin D3 receptor (Homo sapiens) (UniProt P11473); assay: qHTS assay to identify small molecule antagonists of the vitamin D receptor (VDR) signaling pathway (AID 743223; active = well fitted inhibition curve with a large enough effect in the signal ratio in the repeat runs, not every such curve was filed as active; inconclusive = weak or mixed curves, or effect the other way; inactive = no such curve, though single readings can be large or run the other way; the % refers to the signal ratio; also: % is scaled to controls: 0 for no effect and ±100 for the full control effect); conditions: VDR-UAS-bla HEK293T, beta-lactamase FRET ratio, 16 h
Procedure, shortened: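 Antagonist mode uses 1alpha,25-dihydroxyvitamin D3 at 3 nM final as stimulus. VDR-bla cells receive compounds in DMSO, incubate 16 h at 37C, then a beta-lactamase FRET substrate for 2 h at room temperature before fluorescence measurement.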

[12] = qHTS assay to identify small molecule agonists of the peroxisome proliferator-activated receptor delta (PPARd) signaling pathway - cell viability counter screen (AID 743211; active = well fitted curve in the direction sought with a large enough effect in the repeat runs; inconclusive = weak or mixed curves; inactive = no such curve, though single readings can be large; an effect the other way counts as inactive or inconclusive; also: potency is read from the fitted curve at half-maximal effect; nearly all actives have a fitted effect of over 55% in size); conditions: PPARd-bla HEK293H viability, CellTiter-Glo luminescence, 17 h; activity change, negative = cytotoxicity: at 62.6 µM (top of the series)
Procedure, shortened: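 HEK293H PPARd-bla, 3000 cells/well; 5 h preincubation 37C/5% CO2; cpd in DMSO, 17 h 37C; B/G FRET substrate 2 h RT; CellTiter-Glo 30 min RT, luminescence.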

[13] = qHTS assay for small molecule agonists of the antioxidant response element (ARE) signaling pathway - cell viability counter screen (AID 743203); conditions: ARE-bla HepG2 viability, CellTiter-Glo luminescence, 16 h; viability change, negative = cytotoxic: at 73.3 µM (top of the series); also: potency is read from the fitted curve at half-maximal effect; nearly all actives have a fitted effect of over 55% in size
Procedure, shortened: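 Cells (ARE-bla HepG2, 2,000/well) receive DMSO-dissolved compounds after a 5 hrs rest. Plates incubate 16 hrs at 37C/5% CO2. CellTiter-Glo luminescence is then recorded after 30 min at room temperature.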

[14] = activity change, negative = inhibition: at 61 µM (top of the series) unless noted
Tags tell the direction and shape of the fitted curve or compound fluorescence and quenching.

CCCCC(CC)CN1CN(CC(CC)CCCC)CC(C)(N)C1 (configuration not stated)
active: Potency [2] 29.8 µM | Potency [6] 29.8 µM
inconclusive: Potency [1] 33.5 µM [inhibitor] | Potency [3] 21.1 µM [falling, partial curve] | Potency [4] 18.8 µM [falling, partial curve, poor fit] | Potency [5] 10.6 µM [rising, partial curve, poor fit]

CCc1cc(Cc2cc(CC)c(N)c(CC)c2)cc(CC)c1N
inconclusive: Potency [2] 54.9 µM [cytotoxic] | Potency [3] 48.6 µM [falling, partial curve] | Potency [4] 47.1 µM | Potency [5] 17.4 µM [rising, partial curve, poor fit] | Potency [7] 61.7 µM [inhibitor, single point] | activity change, negative = inhibition [8] -24.9% | Potency [10] 21.9 µM
active: Potency [1] 38.9 µM | Potency [9] 43.6 µM
inactive: Potency [11, 14]

C=C(C)CNCC
inconclusive: ratio activity, negative = inhibition [1] 10.5% | Potency [2] 2.19 µM [cytotoxic, partial curve, poor fit] | Potency [12] 17.1 µM [rising, full curve, poor fit] | activity change, negative = inhibition [11, 14] -35.3%
inactive: Potency [3] | activity change, negative = inhibition ([11]; at 61 µM (top of the series)) 12%

Oc1ccc(O)cc1
inconclusive: ratio activity, negative = inhibition [1] -24% and 10.9% and 1.05% | Potency [2] 0.434 µM [cytotoxic, full curve, poor fit] | Potency [3] 542 nM [rising, full curve] and 1.37 µM [rising, full curve] and 2.11 µM [rising, full curve] | Potency [13] 68.2 µM [cytotoxic, single point] | Potency [4] 17.3 µM [falling, full curve] | activation [4] 7.46% | ratio activity, negative = inhibition [7] -36.8% | Potency [9] 0.0434 µM [rising, full curve, poor fit] | activation [10] -9.75% [fluorescent] | Potency [6] 61.3 µM [cytotoxic, single point]
